Reference: article PMC4336329 (PLoS ONE, 2015)
The whole screen tested about 310,000 compounds, of which about 2,200 (0.71%) showed an effect of 50% or more. The effect is printed as a negative number. The list shows a part of the results.

What follows are molecules tested against human ether-à-go-go-related gene (hERG) potassium channel (human, UniProt Q12809) (assay: primary screen, population patch clamp on CHO cells stably expressing hERG).
human ether-à-go-go-related gene (hERG) potassium channel, sequence (Q12809 whole entry, looked up): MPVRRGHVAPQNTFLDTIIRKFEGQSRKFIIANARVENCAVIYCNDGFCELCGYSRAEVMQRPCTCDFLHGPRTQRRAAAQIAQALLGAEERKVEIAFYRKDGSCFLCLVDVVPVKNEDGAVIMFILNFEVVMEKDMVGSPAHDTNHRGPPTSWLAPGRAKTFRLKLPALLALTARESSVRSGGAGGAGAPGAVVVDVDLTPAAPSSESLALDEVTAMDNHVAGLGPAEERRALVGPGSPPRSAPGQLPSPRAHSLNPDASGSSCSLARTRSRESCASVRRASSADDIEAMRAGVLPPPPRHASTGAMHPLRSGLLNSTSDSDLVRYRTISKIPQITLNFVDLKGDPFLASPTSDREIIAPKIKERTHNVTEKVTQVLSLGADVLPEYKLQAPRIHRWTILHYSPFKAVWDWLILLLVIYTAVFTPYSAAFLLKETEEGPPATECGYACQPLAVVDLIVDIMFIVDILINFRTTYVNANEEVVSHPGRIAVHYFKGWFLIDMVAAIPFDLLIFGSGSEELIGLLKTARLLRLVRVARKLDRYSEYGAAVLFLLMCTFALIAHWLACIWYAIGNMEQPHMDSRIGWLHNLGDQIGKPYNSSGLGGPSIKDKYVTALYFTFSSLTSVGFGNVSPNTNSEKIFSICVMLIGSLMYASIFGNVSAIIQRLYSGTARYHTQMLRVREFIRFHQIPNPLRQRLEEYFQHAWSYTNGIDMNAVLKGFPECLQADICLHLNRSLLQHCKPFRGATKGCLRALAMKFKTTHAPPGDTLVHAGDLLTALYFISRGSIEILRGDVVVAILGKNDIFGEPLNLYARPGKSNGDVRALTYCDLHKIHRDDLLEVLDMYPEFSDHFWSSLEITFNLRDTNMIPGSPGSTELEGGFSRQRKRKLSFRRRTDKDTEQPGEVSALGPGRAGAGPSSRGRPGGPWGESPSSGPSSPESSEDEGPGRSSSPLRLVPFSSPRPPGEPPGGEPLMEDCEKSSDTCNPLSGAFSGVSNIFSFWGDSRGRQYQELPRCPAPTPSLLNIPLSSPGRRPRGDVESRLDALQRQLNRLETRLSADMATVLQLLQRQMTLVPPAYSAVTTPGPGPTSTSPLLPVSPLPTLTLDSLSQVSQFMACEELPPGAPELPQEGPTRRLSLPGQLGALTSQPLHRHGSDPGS

Compound | hERG current change (%, negative = inhibition) at 1uM [%]
O=S(=O)(NCC1CCCO1)c1ccc(S(=O)(=O)N(Cc2ccccn2)C2CC2)cc1 (centres unmarked) | 10.1
CCCc1ccc(C(=O)/C=C/N(C)C)cc1 | 1.49
Cc1ccc(CNC(=S)N(C)C)cc1 | 10.1
O=C(CCCC(=O)OCC(Cl)=C(Cl)Cl)Nc1ccccc1 | 9.63
Cc1onc(-c2ccccc2)c1NC(=O)N(Cc1ccccc1)C(C)C | 13.3
O=C(O)c1ccc(/C=N/NC(=O)c2ccc(CN3c4cccc5cccc(c45)S3(=O)=O)cc2)cc1 | 11.7
O=C(CSc1nnnn1C1CCCCC1)N1CCN(C(=O)c2ccco2)CC1 | 5.07
Cc1cccc(NC(=O)C2CCCN(S(=O)(=O)c3c(C)nn(C)c3C)C2)n1 (centres unmarked) | 10.9
Cc1ccc(C)c(N(C)S(=O)(=O)c2ccc3c(c2)oc(=O)n3C)c1 | 12.1
CC1CCN(c2ccccc2NC(=O)c2ccc(Br)o2)CC1 | -3.61
Cc1ccc(OCCNC(=O)c2ccccc2OCc2c(C)noc2C)cc1 | 14.3
COc1cccc(CNc2nc3ccccc3n2C)c1O | 11.7
COc1ccc(C2NC(=O)N(CCCC(=O)O)C(C)=C2C(=O)OCc2ccccc2)cc1 (centres unmarked) | 9.48
O=C(N/N=C/C1CC2CCC1C2)c1c[nH]c2ccccc12 (centres unmarked) | 5.05
C/C(=N\NC(=O)c1ccccc1O)c1c(O)n(Cc2ccccc2)c(=O)[nH]c1=O | 9.52
CCCC(=O)c1ccc(N2CCN(C(=O)OCC)CC2)c(F)c1 | 9.78
O=C1CN(C(=O)/C=C/c2ccc(Cl)cc2)c2ccccc2N1 | -18.7
COc1ccccc1OCCOCCOc1c(C)cc(C)cc1Br | 5.34
Cc1ccc(-c2ccc(/C=C3\C(=O)ON=C3c3ccccc3)o2)c([N+](=O)[O-])c1 | -10.8
Cc1nc2ccccc2nc1OCC(=O)Nc1ccccc1 | 14.5
Cc1ccc(N2CC(C(=O)Nc3cccnc3)CC2=O)cc1C (centres unmarked) | 11.9
O=[N+]([O-])c1cc(S(=O)(=O)Nc2ccccc2)ccc1NCc1ccccc1 | 13.3

Compound | hERG current change (%, negative = inhibition) at 1uM [%]
CN(C)C(=S)SCC(=O)Nc1ccc(Cl)cc1Cl | -0.0331
Cc1cccc(-n2ncc3c(N4CCc5ccccc54)ncnc32)c1 | 11.9
CCCOc1cccc(C(=O)Nc2cc(NC(=O)c3ccco3)ccc2OC)c1 | 13.9
CCOc1ccccc1NC(=O)C(=O)N/N=C/c1cc(Br)ccc1O | 16.2
C=CCc1cc(C=O)cc(OC)c1OCc1ccc(Cl)cc1 | 3.5
CCS(=O)(=O)NC(C)C(c1cccs1)N1CCN(c2ccc(OC)cc2)CC1 (centres unmarked) | 0.652
OCCCn1c(C2CCCN2c2nc(-c3ccc(F)cc3)cs2)nc2cc(Cl)c(N3CCCCC3)cc21 (centres unmarked) | 11.7
CCOc1ccc(Br)cc1S(=O)(=O)NC1CC(C)(C)NC(C)(C)C1 | 17
Cc1cc(-c2cc(C(=O)NCc3ccccc3)on2)nc(NCC2CC2)n1 | 13.4
CC1CCN(S(=O)(=O)c2ccc(C(=O)NCc3ccc4c(c3)OCO4)cc2)CC1 | -8.17
CC1=CCC2([N+](=O)[O-])CN(CC(=O)O)CC1([N+](=O)[O-])C2 (centres unmarked) | -3.41
CCCNC(=O)CS(=O)Cc1nc(-c2ccc(OC)cc2)oc1C (centres unmarked) | 11.2
COC(=O)c1ccc(SC2CCCCC2)c([N+](=O)[O-])c1 | 19.4
CC1(NC(=O)Cc2c(Cl)cccc2Cl)CCS(=O)(=O)C1 (centres unmarked) | 15.3
C=CC12C=CC=CN1C(C(=O)OC)=C(C(=O)OC)C(C(=O)OC)=C2C(=O)OC (centres unmarked) | 5.35
COc1ccc(CCN2C(=O)CS/C2=N/NC(=O)c2ccccc2F)cc1OC | -1.19
COc1cc(NC(=O)c2ccccc2)c(OC)cc1NC(=O)CN1CCOCC1 | 6.98
O=C(NC1CCCc2ccccc21)c1cccc(Br)c1 (centres unmarked) | 3.46
COc1ccc(NC(=O)CN(C)C(=O)Cn2cnc3c2c(=O)n(C)c(=O)n3C)cc1 | 2.39
S=c1[nH]nc(-c2ccc(Cl)cc2)n1CCCN1CCOCC1 | 7.41
COc1cc(CNCCc2ccc(F)cc2)ccc1OCc1ccc(Cl)nc1.Cl | -39.3
CC1COc2ccccc2N1C(=O)c1ccc(Cl)nc1 (centres unmarked) | 5.15
